Consider 1 compound from patent publication US11344527B2, “Methods and compositions for treating cancer” (Sutter West Bay Hospitals, priority 2007, dated 2022).

Format in all cases: cell-based, human
One assay deals with Id-1. The experiment in a line: Id-1 protein expression by quantitative Western analysis, MDA-MB231. From the text: Proteins were separated by SDS/PAGE, blotted on Immobilon membrane, and probed with anti-Id-1 and the appropriate secondary antibody. Band intensity values were obtained directly from the blot using AlphaeaseFC software (San Leandro, Calif.) or from film using Image-J (NIH, MD). As a normalization control for loading, blots were stripped and re-probed with mouse alpha-tubulin (Abeam, Cambridge, Mass.).
The ability of CBD to regulate the expression of key genes that control breast cancer cell aggressiveness and invasiveness was determined A potential candidate protein that could mediate the effects of CBD on both phenotypes was the helix-loop-helix protein Id-1. […] The inhibitory effect of CBD on Id-1 expression occurred at concentrations as low as 100 nM. […] The CBD concentrations effective at inhibiting Id-1 expression correlated with those used to inhibit the proliferative and invasive phenotype of MDA-MB231 cells. Furthermore, the time period needed to observe the down-regulation of Id-1 protein in the presence of CBD correlated with the inhibitory effects of CBD on the aggressiveness and invasiveness of MDA-MB231 cells (FIG. 1, panel D).
In order to determine the SAR between cannabinoids and the inhibition of Id-1, MDA-MB231 cells were treated for two days with multiple cannabinoid compounds and Id-1 protein levels were assessed.

Another assay deals with caspase 3, 7, 9 and PARP. The experiment in a line: Caspase and PARP Western analysis, U251. Conditions: U251, three days; Δ9-THC 1.7 μM and/or CBD 0.4 μM; FIG. 9.
Assay [1] has as its system U251 cells. The experiment in a line: Apoptosis (annexin staining, FACS), U251. As to conditions: U251, three days. On the procedure:
Cells were grown in 6 well culture dishes and were treated with the appropriate compounds every 24 hours for three days. The cells were trypsinized, washed with PBS, and processed for labeling with fluorescein-tagged UTP nucleotide and PI by use of an Apo-Direct apoptosis kit obtained from Phoenix Flow Systems (San Diego, Calif.) and was used according to the manufacturer's protocol. The labeled cells were analyzed by flow cytometry. Cell Flow Cytometry in combination with PI and annexin staining was used to quantify the percentage of cells undergoing apoptosis in control and treatment groups. % control was calculated as annexin positive staining in treated cells/control cells×100. PI staining was used to distinguish necrotic cells from those undergoing apoptosis.

A further assay deals with Id-1 mRNA. The experiment in a line: Id-1 mRNA expression by polymerase chain reaction, MDA-MB231. As to conditions: MDA-MB231 cells; FIG. 2A. Here is the method:
Total cellular RNA was isolated from breast cancer cells treated with vehicle control or with CBD. Transcripts for Id-1 and for β-actin were reverse transcribed using SuperscriptII Reverse TranscriptaseII (Gibco-BRL), and polymerase chain reaction performed. The 5′ and 3′ PCR primers were […] (SEQ ID NO:1) and […] (SEQ ID NO:2) for Id-1; and […] (SEQ ID NO:3) and […] (SEQ ID NO:4) for β-actin. PCR was performed in buffer containing 1 μM of each of the 5′ and 3′ PCR primer and 0.5 U of Taq polymerase using 25 cycles for amplification of Id-1 and β-actin cDNAs. The cycle conditions were 45 sec denaturation at 94° C., 45 sec annealing at 55° C., and 1 min extension at 72° C.
To determine if this effect was due to the inhibition of transcription, a construct was used that contained the Id-1 promoter fused to a luciferase reporter in a PGL-3 basic vector. This construct was transiently transfected into MDA-MB231 cells. Twenty-four hours after transfection, MDA-MB231-Id-1-luc cells were treated with CBD for 2 or 3 days and luciferase activity was measured (FIG. 2, panel B and panel C). Transfection efficiency and analysis of equal amounts of total protein were controlled by contransfection of the cells with pCMVB containing β-galactosidase. […] These findings correlated to the data obtained when the expression of the Id-1 protein was assessed by Western analysis.

In assay [2] the test system is U251 cells. Kind of assay: Boyden chamber invasion assay, U251. Conditions: FIG. 10.

On to `C=C(C)[C@@H]1CCC(C)=C[C@H]1c1c(O)cc(CCCCC)cc1O` [CBD, cannabidiol], for which the “Id-1 protein expression in MDA-MB231 cells” value in the assay on Id-1 (0.1, 1.0 or 1.5 μM, three days, FIG. 1B, C) is reported as “concentration-dependent inhibition”. In addition, the “concentration as low as which the inhibitory effect on Id-1 expression occurred” value in the assay with Id-1 (MDA-MB231 cells) is reported as 100 nM. Besides, the “inhibition of Id-1 protein (structure activity relationship)” value in the assay on Id-1 (MDA-MB231 cells, 1.5 μM, two days, FIG. 1E) is on record as “greatest inhibition”. The “caspase 3, 7, 9 and PARP activation” value in the assay with caspase 3, 7, 9 and PARP was “no changes in caspase activity”. The “apoptosis in the presence of the CB2 antagonist SR144528” value in the assay with U251 cells [1] (0.5 μM SR144528, combination 1.7/0.4 μM, 2.5 μM Δ9-THC or 2.0 μM CBD, FIG. 6) is given as “no reversal”. The “apoptosis in the presence of α-tocopherol” value in the assay on U251 cells [1] (20 μM α-tocopherol, combination 1.7/0.4 μM, 2.5 μM Δ9-THC or 2.0 μM CBD, FIG. 6) is recorded as “completely blocked”. The “apoptosis (annexin staining)” value in the assay with U251 cells [1] (Δ9-THC 1.7 μM and/or CBD 0.4 μM, FIG. 5) is “did not produce significant changes”. The “Id-1 mRNA expression” value with Id-1 mRNA is given as “significantly reduced”. In addition, in the assay on U251 cells [2], the “invasiveness of U251 cells” value was “significantly reduce”.
